Measured values reported in PubChem BioAssay AID485360 (National Center for Advancing Translational Sciences (NCATS), 2010).
The campaign covered roughly 230,000 compounds. About 1,500 (0.65%) were called active. Inconclusive results, whose numbers are uncertain, are shown with a selection of clear calls. Calls come from the whole dose curve; as a rule, active = well fitted inhibition curve with a large enough effect; inconclusive = small, poorly fitted or top-dose-only effect; inactive = no such curve, though single readings can be large or run the other way. A potency beside an inconclusive call is a rough fit, not a confirmed value. Numbered stars: 1 amine (or outer) side, 2 acyl side, 3 side chain; on linkers, the order of the positions; unused ones are H or OH. Bridge positions count the residues as written; N and C are the ends. Square brackets hold non-standard residues; d marks the D form. Peptide text beside a SMILES is read from it. ξ: configuration not given here. hSer(Ph(2-I,4-NO2,6-CO)) = O=C([C@H](CCOc1c(I)cc([N+](=O)[O-])cc1C(=O)[*:3])N[*:1])[*:2]; ξD = NC(CC(=O)O)C(=O)O

Target: Lethal(3)malignant brain tumor-like protein 1 (Homo sapiens) (UniProt Q9Y468)
UniProt Q9Y468, sequence (Q9Y468 whole entry, looked up): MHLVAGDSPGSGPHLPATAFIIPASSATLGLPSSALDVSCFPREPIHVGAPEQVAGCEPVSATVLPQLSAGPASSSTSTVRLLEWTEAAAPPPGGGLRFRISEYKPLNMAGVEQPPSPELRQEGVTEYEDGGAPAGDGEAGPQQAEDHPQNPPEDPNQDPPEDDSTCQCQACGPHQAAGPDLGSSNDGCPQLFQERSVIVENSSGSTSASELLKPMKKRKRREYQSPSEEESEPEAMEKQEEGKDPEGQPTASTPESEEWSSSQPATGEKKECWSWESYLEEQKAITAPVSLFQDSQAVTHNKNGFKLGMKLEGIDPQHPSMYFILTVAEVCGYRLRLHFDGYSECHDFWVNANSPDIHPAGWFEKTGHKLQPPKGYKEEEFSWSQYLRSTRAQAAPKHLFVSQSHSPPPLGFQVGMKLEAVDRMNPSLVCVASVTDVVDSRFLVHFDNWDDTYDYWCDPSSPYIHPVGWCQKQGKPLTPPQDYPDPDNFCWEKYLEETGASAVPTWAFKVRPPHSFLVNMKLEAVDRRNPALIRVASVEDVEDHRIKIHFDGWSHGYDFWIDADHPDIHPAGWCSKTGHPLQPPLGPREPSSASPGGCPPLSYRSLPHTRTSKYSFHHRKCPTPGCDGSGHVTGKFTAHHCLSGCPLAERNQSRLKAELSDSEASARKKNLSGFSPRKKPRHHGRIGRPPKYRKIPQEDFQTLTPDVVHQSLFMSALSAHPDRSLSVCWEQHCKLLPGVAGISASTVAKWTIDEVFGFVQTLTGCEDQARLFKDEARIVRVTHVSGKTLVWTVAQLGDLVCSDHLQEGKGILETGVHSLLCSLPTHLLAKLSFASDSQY
Test: qHTS Assay for the Inhibitors of L3MBTL1; note: nearly all actives have a fitted effect of over 60% in size
Settings: AlphaScreen L3MBTL1–H3K9me1 peptide binding; activity, negative = inhibition: at 57.1 µM (top of the series)
In short: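 First, the protein-peptide complex forms for 30 min at room temperature (L3MBTL1 50 nM, biotinylated H3K9me1 peptide 75 nM). Next, compounds are pin-transferred and incubated 30 min. Finally, AlphaScreen beads are added and read after 30 min.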
% is set by controls: 0 for no effect and ±100 for the full control effect; potency is the fitted concentration of half-maximal effect; tags give direction and shape of the fitted curve.

SMILES	Potency	activity, negative = inhibition
O=C(c1cccs1)N1CCC(N2CCN(c3ccccc3)CC2)CC1	inconclusive: 1 µM [inhibitor, single point]	–
Cc1cc(C)n(-c2nnc(C)c(=O)[nH]2)n1	inconclusive: 39.8 µM [inhibitor, single point]	–
Cc1cccc(N=N/C(=C\O)C(=O)c2ccc(Br)cc2)c1	inconclusive: 3.55 µM [inhibitor, single point]	–
CCCCNC(=O)Nc1ccccc1C(=O)NCCC	inconclusive: 7.08 µM [inhibitor, single point]	–
O=C(CN(C(=O)CSc1nnc(COc2ccccc2)o1)c1ccc(F)cc1)NC1CCCC1	inconclusive: 39.8 µM [inhibitor, single point]	–
COc1ccc(CCNC(=O)c2cnc3scc(C)n3c2=O)cc1OC	inconclusive: 8.91 µM [inhibitor, full curve, poor fit]	–
CSc1ccc(/C=C(\C(=O)O)c2ccc(S(=O)(=O)N3CCCC3)s2)cc1	inconclusive: 28.2 µM [inhibitor, partial curve]	–
COCC1CCN(Cc2cn[nH]c2-c2ccc(OC)cc2F)C1 (configuration not stated)	inconclusive: 5.62 µM [inhibitor, full curve, poor fit]	–
COc1cc2c(C#N)c(N3CCCC3)nc(N)c2c(N)n1	inconclusive: 39.8 µM [inhibitor, partial curve]	–
COc1ccc(-c2csc(Nc3ccc(S(=O)(=O)Nc4cc(C)on4)cc3)n2)cc1C	inconclusive: 28.2 µM [inhibitor, partial curve]	–
CN(C(=O)c1coc(=O)c2ccccc12)c1ccc(Br)cc1	inconclusive: 0.1 µM [inhibitor, full curve, poor fit]	–
CCc1c(C(=O)Nc2ccc(S(=O)(=O)N3CCOCC3)cc2)csc1C	inconclusive: 3.98 µM [inhibitor, single point]	–
O=C(CSCC(=O)NC1CC1)Nc1ccccc1	inconclusive: 35.5 µM [inhibitor, single point]	–
Cc1cccc(C)c1-n1c(C)cc(/C=C2\C(=O)NN(c3ccccc3)C2=O)c1C	inconclusive: 31.6 µM [inhibitor, single point]	–
COc1ccccc1CNC(=O)COC(=O)c1cccs1	inconclusive: 0.708 µM [inhibitor, single point]	–
O=C1c2cccc3c(O)ccc(c23)C(=O)N1Cc1ccco1	inconclusive: 20 µM [inhibitor, single point]	–
COc1cccc(C(=O)CSc2nnc(CNc3nc(-c4ccccc4)cs3)n2C)c1	–	inactive: -5.11%
COc1cccc(OC)c1CN1CCCC(C(=O)c2ccccc2SC)C1 (configuration not stated)	inconclusive: 6.31 µM [inhibitor, full curve, poor fit]	–
O=C(OCc1cc(=O)n2c(n1)sc1ccccc12)c1ccc(O)cc1O	inconclusive: 35.5 µM [inhibitor, single point]	–
CC(=O)C1=C(O)C(=O)N(c2ccc(Br)cn2)C1c1ccc(F)cc1 (configuration not stated)	–	inactive: 9.31%
Cc1ccc(CNc2oc(-c3cccs3)nc2C#N)cc1	inconclusive: 31.6 µM [inhibitor, single point]	–

SMILES	Potency	activity, negative = inhibition
CNC(=S)N1N=C(c2ccc(OC)cc2)CC1c1ccc(N(C)C)cc1 (configuration not stated)	inconclusive: 28.2 µM [inhibitor, partial curve]	–
O=C(c1ccccc1NS(=O)(=O)c1ccc2c(c1)OCCO2)N1CCOCC1	inconclusive: 10 µM [inhibitor, single point]	–
O=C(NNc1c2ccccc2nc2ccccc12)c1cc2ccccc2cc1O	inconclusive: 8.91 µM [inhibitor, partial curve]	–
Cc1ccc(C(=O)OCC(=O)N2CCc3ccccc32)cc1	inconclusive: 7.08 µM [inhibitor, single point]	–
CCCCc1ccc(/C(C)=N/Nc2cc(N3CCOCC3)nc(C)n2)cc1	–	inactive: 0.863% [at 2.29 µM]
CC1CCCN(C(=O)COc2ccc(Nc3ccccc3)cc2)C1 (configuration not stated)	inconclusive: 39.8 µM [inhibitor, partial curve, poor fit]	–
CCn1nc(NC(=O)c2ccncc2)c2cc3cc(C)ccc3nc21	inconclusive: 10 µM [inhibitor, partial curve, poor fit]	–
CN(C)S(=O)(=O)c1ccc(/C(O)=C2/C(=O)C(=O)N(Cc3cccnc3)C2c2ccco2)cc1 (configuration not stated)	inconclusive: 6.31 µM [inhibitor, single point]	–
CCOc1ccc(C2=Nn3c(nnc3-c3ccccn3)SC2)cc1	inconclusive: 17.8 µM [inhibitor, single point]	–
Cc1ccc(S(=O)(=O)N(C)c2cc(S(=O)(=O)Nc3ccncc3)c(C)cc2C)cc1	inconclusive: 6.31 µM [inhibitor, single point]	–
C=CCOc1c(Br)cc(CNc2ccc(NC(=O)CCC)cc2)cc1OCC	inconclusive: 39.8 µM [inhibitor, single point]	–
C/C(=N\NC(=S)Nc1ccc(F)cc1)c1ccc2c(c1)OCCO2	inconclusive: 39.8 µM [inhibitor, single point]	–
O=C(Nc1ccccc1)c1sccc1Oc1ccc([N+](=O)[O-])cc1F	inconclusive: 22.4 µM [inhibitor, partial curve]	–
CCN(CC)c1ccc(-c2n[nH]c(=S)n2-c2ccccc2C)cc1	inconclusive: 44.7 µM [inhibitor, partial curve, poor fit]	–
Cn1cc([N+](=O)[O-])c(C(=O)n2cccn2)n1	–	inactive: -4.77%
Cc1ccc(C(=O)NCC(=O)OCC(=O)NCCc2ccccc2)s1	inconclusive: 39.8 µM [inhibitor, single point]	–
COc1cccc(=O)c2c(C)n(CC(=O)c3ccccc3)c(C)c12	inconclusive: 35.5 µM [inhibitor, single point]	–
O=C(O)C1OC(Oc2c(-c3ccc(O)c(O)c3)oc3cc(O)cc(O)c3c2=O)C(O)C(O)C1O (configuration not stated)	–	inconclusive: -98.4% [inhibitor]
O=CNn1cnc2c(oc3nc(-c4ccccc4)cc(-c4ccco4)c32)c1=O	inconclusive: 35.5 µM [inhibitor, single point]	–
CCOC(=O)C1=C(COC(=O)c2ncc(Cl)c(Cl)c2Cl)NC(=O)NC1C (configuration not stated)	–	inactive: -5.57%
Cc1ccc(NC(=O)CSc2nnc(-c3ccc(S(=O)(=O)N4CCOCC4)cc3)n2C)cc1	inconclusive: 3.55 µM [inhibitor, single point]	–

SMILES	Potency	activity, negative = inhibition
Cc1cc(C(=O)OCC(=O)NCc2ccco2)c(C)n1-c1ccc(F)cc1	inconclusive: 22.4 µM [inhibitor, partial curve]	–
Cc1nnc(SCC(=O)Nc2nnc(-c3ccccc3)o2)s1	inconclusive: 25.1 µM [inhibitor, single point]	–
COc1ccc(C2C(C(=O)/C=C/c3ccco3)=C(O)C(=O)N2CCN2CCOCC2)cc1 (configuration not stated)	–	inactive: -17%
Cc1c(Cc2ccccc2)c(=O)oc2cc(OCC(=O)NCC3CCC(C(=O)O)CC3)ccc12 (configuration not stated)	inconclusive: 6.31 µM [inhibitor, single point]	–
Cc1ccc2nc(SCC(=O)c3c(C)[nH]c4ccccc34)[nH]c2c1	inconclusive: 0.794 µM [inhibitor, single point]	–
NS(=O)(=O)c1ccc(CCNC(=O)COC(=O)c2ccc([N+](=O)[O-])o2)cc1	inconclusive: 35.5 µM [inhibitor, single point]	–
COc1cccc(C(=O)Nc2cccc(C(=O)NC3=NN(c4c(Cl)cc(Cl)cc4Cl)C(=O)C3)c2)c1	inconclusive: 31.6 µM [inhibitor, single point]	–
Cc1cccc(Nc2nc(N3CCN(C)CC3)nc(N)c2[N+](=O)[O-])c1	inconclusive: 1.12 µM [inhibitor, full curve]	–
Cc1ccc(Cl)cc1N1CCN(C(=O)CSc2ccsc2[N+](=O)[O-])CC1	inconclusive: 31.6 µM [inhibitor, single point]	–
O=c1ccccn1CCOc1ccccc1Cl	–	inactive: -2.98%
CN(C)CCCNC(=O)C[C@H]1C[C@H](C(=O)N2CCCCC2)[C@@]2(C)c3[nH]c4cc(CCC(=O)N(C)C)ccc4c3CCN2C1=O	inconclusive: 39.8 µM [inhibitor, single point]	–
COc1ccc(NC(=S)Nc2ccc(OCc3ccccc3)cc2)cc1OC	inconclusive: 8.91 µM [inhibitor, partial curve]	–
O=S(c1ccsc1)c1ccsc1	inconclusive: 5.62 µM [inhibitor, single point]	–
O=S(=O)(Cc1cc(NCc2ccccc2)nc(-c2ccccn2)n1)c1ccccc1	inconclusive: 5.01 µM [inhibitor, partial curve, poor fit]	–
Cc1nn(C(=O)c2cccs2)c(N)c1-c1ccccc1	inconclusive: 31.6 µM [inhibitor, single point]	–
CC12CCC(O)CC1=CCC1C2CCC2(C)C1CCC21CCC(=O)O1 (configuration not stated)	–	inactive: 2.11%
CC(=O)N1CCC2(CC1)C(C#N)=C(N)Oc1c2sc2nc(C)cc(C)c12	–	inactive: 6.61%
COCc1[nH]c(=S)[nH]c(=O)c1C	inconclusive: 0.794 µM [inhibitor, single point]	–
CCCCn1c(N)c(N(CCOC)C(=O)c2cc(-c3ccco3)nc3ccccc23)c(=O)[nH]c1=O	inconclusive: 39.8 µM [inhibitor, single point]	–
C[C@@H]1NC(=O)c2cc([N+](=O)[O-])cc(I)c2OCC[C@@H](C(=O)NC(CC(=O)O)C(N)=O)NC(=O)[C@H](CCC(=O)O)NC1=O (some centres not stated) (AE[hSer(Ph(2-I,4-NO2,6-CO))][ξD]-NH2; lactam N-3)	inconclusive: 28.2 µM [inhibitor, single point]	–
